Results from the supplement of paper PMC11417369.
± gives the standard deviation of the averaged measurements. This is one part of the list.

tested on: PfAP2-G AP2 domain (GST-tagged); assay: gcPBM binding intensity (ln(normalized median fluorescence intensity)); higher = stronger DNA binding
In short: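 Probes on an Agilent 4 × 180k array were primer-extended, double-stranded and 36 bp long, taken from intergenic genomic regions, with negative controls added. GST-tagged P. falciparum DNA-binding domains from E. coli, about 25 μg on average, were applied to the array for 1 h in 1× PBS containing 1% milk, 0.2 mg/ml BSA, 0.5% salmon testes DNA and 0.03% Triton X-100. Binding intensity, obtained after Alexa488 anti-GST antibody detection and a 488 nm scan, is the highest Masliner-normalised natural-log median intensity across replicate spots of either probe orientation.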

Sequence	gcPBM binding intensity (ln)
AATGATATTATCTCTTCACACACTCACATACAGACA [CACACA_site8335]	10.1 ± 0.2
TCATTGAAAAAAATGTGTACTCATCAAGTATATATT [XGTACX_site6430]	11.4 ± 0.88
GCGGCGGTATCATGCACACGTATATATTGTAACAGT [CACACA_site4958]	10.3 ± 0.14
ATATATAATTTTTGTTGTACATTATAAAAATAATTA [XGTACX_site2738]	11.2 ± 0.59
ATTGTTATGAGAACAGCACACAAGCTACATCATATA [CACACA_site8192]	10.1 ± 0.15
TTTACAGATACATTCACACATAAATTCATGTATAAT [CACACA_site5387]	9.94 ± 0.057
GGATTTATTATATATACACACATACATATATATATA [CACACA_site8669]	10.3 ± 0.44
GTCTAAGCTTATAGGCGTACACATGAATATGGATGT [XGTACX_site2439]	11.6 ± 0.84
ATACATAAAATTAAAACACACATTTGATTAAATACG [CACACA_site7088]	10.07 ± 0.071
ATCAAGCGCAATGTGGTGCGTAAATTTTGTATTATA	10.2 ± 0.21
AAAGGATACAGACACACACACACATATATATATATA [CACACA_site906]	10.2 ± 0.23
ATAAGAAAAAAGAACTGTACTAATAAAATATAAAAA [XGTACX_site3715]	11.3 ± 0.75
ATTATATAATTGTCTTCACACACACCGATATATATA [CACACA_site8883]	10.2 ± 0.16
TGTACATATATATAATATATATATCATCATATTTTC [CACACA_negctrl_site1750]	10.4 ± 0.21
ATAATATATATACAAACACACAATTGTGTCCACATT [CACACA_site1747]	11.4 ± 0.83
TCCTTAAAATATATCACACATTTCGTTCATTTATAA [CACACA_site4346]	9.91 ± 0.18
TATATATATATATCCACACACATACAGATATTAAGA [CACACA_site4214]	10.2 ± 0.25
AGTATACGAATAAAATGTACATACAAATTGTTGTAA [XGTACX_site36]	11 ± 0.67
ATTCACGTGTCTTAAAAAAAAAAAAAAGAAAAAAAG [CACACA_negctrl_site573]	10 ± 0.47
ATATATATATATATATGTACATATATATACATATAT [XGTACX_site6987]	11.5 ± 1
TTATTTATAATATATACACACTAACATTATTTATCC [CACACA_site4835]	9.815 ± 0.049
TATAATATATACAAATGTACATATATATATATATAT [XGTACX_site4559]	11 ± 0.54
TATATATATATATATGGTACAGTTTATGCCTTTTAA [XGTACX_site6695]	10.8 ± 0.56

Sequence	gcPBM binding intensity (ln)
ATTTTCATGATAAAGGTGCAATTATTTTTATAAGAA	10.1 ± 0.26
AAAAAAAAAAAAAAAAAAAAAAAAAAAATTCTATAT [GTGCAC_negctrl_site468]	11 ± 0.47
AAGGCATACAATACCTGTACGCAACCTTAAAAAGAA [XGTACX_site6070]	11.5 ± 0.91
ATATATATGTGAAAATCACACATTGCTTATCTGTAA [CACACA_site6044]	9.685 ± 0.021
TGTTTTATTATTTATAGTACATAAAAAAATATTGTA [XGTACX_site8963]	11.1 ± 0.82
TTCGTATATTATTAATGTACATTATAAAATCAATAT [XGTACX_site5751]	10.9 ± 0.57
AAAAAAACATGAAACACACACAAATATATATATATA [CACACA_site1884]	10.1 ± 0.56
AACAATATTATTGTTTGTACTCACATATATAATATA [XGTACX_site8063]	11.5 ± 1.1
TTATTTTTTTTTTTTCGTACTTATTTATCTTGGTAT [XGTACX_site78]	10.9 ± 0.51
AGATATTTCATTTAAAGTACATTCTTTATCACATAA [XGTACX_site6731]	11 ± 0.69
CACACGCACAAAAACACACACAAAGGTGTTCTTATA [CACACA_site6724]	10.2 ± 0.18
TATAATATAAAATAATGTACTTTGAAATATGACATA [XGTACX_site3579]	10.9 ± 0.64
AGTTTGATTTTTTCTTATAATATATTATTATATATT [CACACA_negctrl_site376]	9.975 ± 0.021
AATATAAAAAAAAAATGTACATATTATATATATATA [XGTACX_site5113]	11.1 ± 0.72
AAAAATTTTTTTTCATTTGTTTTTATTCCGTAAAAA [CACACA_negctrl_site1217]	10.05 ± 0.057
ACCGAAGGAATTTATAGTACACATCATAAATAAATT [XGTACX_site4100]	11.3 ± 0.74
ATATATATATATATTTGTACAGATTTATATTATAAT [XGTACX_site7612]	10.9 ± 0.54
GAAAATTTAATATAGAACGAAAGCATACACATATAT [GTGCAC_negctrl_site424]	10.02 ± 0.049
CCATATAATATGAACAGTACACACAAAATAAATTCG [XGTACX_site7590]	11.1 ± 0.72
AAATATTATAGCACCACACACTTATTTTATATATAT [CACACA_site5281]	10.3 ± 0.13
TTTTTATTAATAGATATAAATATATAATATGAATGT [TGCATGCA_negctrl_site309]	9.84 ± 0.11
ATATGTGATTTCTAATGTACACAAAAAAAAAAAAAA [XGTACX_site7701]	11.3 ± 0.91
TTATGTCATAAATGCACACATATATAAATACAGATA [CACACA_site4959]	10 ± 0.22

Sequence	gcPBM binding intensity (ln)
TCTTCAAACAAAAAAAATAATAAAAAGTACAAAATG [CACACA_negctrl_site363]	11.4 ± 0.82
CTTTTATTAAAATTCACACACATAAATTTTTATAAA [CACACA_site1993]	10 ± 0.29
ATATATACGTATGAATGTATATTTGTTTGATTTTTT [CACACA_negctrl_site835]	9.88 ± 0.12
GGGGTATCTTCCTATGCACACTTGTTATGTACTAAC [CACACA_site4610]	11.1 ± 0.57
TTTTTGTTTTTGTTTTGTACTCATACATACTATCAT [XGTACX_site4210]	11.4 ± 0.88
GCTCAATTTTTGGGTACACACAAATGTATAATAATA [CACACA_site2388]	11.6 ± 1
ATATATATTATTTCTACACACATATATATAATATGT [CACACA_site3374]	9.97 ± 0.014
TTTTTTCTATTGAGCACACATATCACGATTAGTACT [CACACA_site313]	10.6 ± 0.26
AAAAAAAAAAAAAAAACACACATATAGATTTATATA [CACACA_site7196]	10.1 ± 0.2
CAAAGAGAAATAAACACACACAAAATAAAGAAAAAA [CACACA_site2245]	9.915 ± 0.049
TTCTTTTTTCAACACACACACACAAGAAAATATATA [CACACA_site9019]	10.4 ± 0.37
CAATGCTTTATCAATACATGCATATATATAGAAATA [TGCATGCA_site857]	9.755 ± 0.035
GCACTCGTAAAAAGCACACATATAAAAACATTTATA [CACACA_site322]	10.2 ± 0.26
TGAACAGACAAATACACACACTCAAAAAAAAAAAAG [CACACA_site7287]	10.2 ± 0.33
CATACATACAGACACACACACATATAAATACATACA [CACACA_site6533]	10.3 ± 0.35
TTCCTGTTAATTACAACACACAATTCTTATTTTATG [CACACA_site6507]	10.2 ± 0.16
AAAATCTATAATATAACACACATATATTCTATATGG [CACACA_site7821]	9.67 ± 0.14
ATTTTCAAATTCTATGCATGTGTATATTATAGATAA [TGCATGCA_site1003]	9.825 ± 0.078
CTATAATAATAAAGTGAACACACACCGATAATATAT [CACACA_site9377]	10.12 ± 0.064
TTAACAAAACTTTTAACACACAAAAAAAAAAAAAAA [CACACA_site6947]	9.84 ± 0.5
ATGACCCACTTTTCTGCACACATAAAAAATATATAA [CACACA_site8092]	10.8 ± 0.5
AACACATACATATATACACACACAAAATAATAAAAT [CACACA_site8724]	10.1 ± 0.28
TTATGATATATTTGTTGTACGCTTTTTTTATGAACT [XGTACX_site573]	11.8 ± 1.1

Sequence	gcPBM binding intensity (ln)
GTAAGTTGTGCATTCACACACATATAAATATAAATA [CACACA_site7536]	10.2 ± 0.16
CATTATGTTGTAAATGCACACATACAAATACATATA [CACACA_site8380]	10.2 ± 0.16
AATTAAATTACTTATACACACATAAAATGCCTGTAT [CACACA_site6597]	9.82 ± 0.16
TATTTATTCTCCAACACACACACATATATTTATATA [CACACA_site7376]	10.2 ± 0.35
AGTTTGTCAATCAACACACACCTATTTATTATAGAT [CACACA_site7777]	9.915 ± 0.035
TTGATAATTATATAATGTACTCATTATAATATGATG [XGTACX_site7813]	11.3 ± 0.98
TATAAAAAAAAAAAAAGTACTAACTTAAAACAATTT [XGTACX_site7969]	11.1 ± 0.76
TTTATTCTCAAACACACACACATATATATATATATA [CACACA_site2895]	9.99 ± 0.22
TAATTAATAATAATATGTACATATTAATATATTATT [XGTACX_site6900]	11.1 ± 0.71
TTTTATATATATATCACACACACACCCATGTTTTAA [CACACA_site79]	10.2 ± 0.23
TGATAAAGTAAATATACATGCGATTAGTTATATATA [TGCATGCA_site720]	9.38 ± 0.57
TTTTTTTTACATTCTGCACACAATTTATTTTTTTTT [CACACA_site36]	10.11 ± 0.078
AAAAATGAGTGACACACACACATATAAATATAAATA [CACACA_site7115]	10.1 ± 0.25
AAATCAAACTTTGGTGTGCACAAATATATACATATA [GTGCAC_site9986]	10.7 ± 0.34
GTAATTTTAAAGAAAAGTACACATTTATTAATTATT [XGTACX_site4468]	11.5 ± 1.2
ACATATAAATATTGTGTGCACACACATAATATATAT	10.6 ± 0.34
TATGTATTTAAGTTACCTGAACGTTCAGGTAAAATT [CACACA_negctrl_site1393]	10.2 ± 0.23
GTGTTAAATGTTTACACACAAACTTGCAATAATTAT [CACACA_site3825]	10.14 ± 0.057
AAAAATTATAACTAAAAAAATCACACAAAATATTTT [TGCATGCA_negctrl_site28]	9.865 ± 0.049
TTGCATTTATTATACACACACAAAAAAATATATATA [CACACA_site238]	10.2 ± 0.3
